ChEMBL document CHEMBL4888484, “Replenishing the malaria drug discovery pipeline: Screening and hit evaluation of the MMV Hit Generation Library 1 (HGL1) against asexual blood stage Plasmodium falciparum ,using a nano luciferase reporter read-out” (2022)
Among all 150,000 compounds or so, about 540 (0.36%) showed an effect of 50% or more. The list shows a part of the results.

Each molecule was assayed on Plasmodium falciparum (assay: Primary screen in NF54 nanoGlo assay, in single point, at 2uM, 72h; a lower Z score goes with more inhibition). Settings: timepoint 72 hour.
Assay type: functional, Erythrocyte
`COc1ccc(S(=O)(=O)N2CCN(c3oc(C(C)(C)C)nc3C#N)CC2)cc1` was tested, and the “% Inhibition” value was -5% and the Z score was 0.71.
In the case of `Cc1csc(N(C)C(=O)[C@@H]2COc3ccccc3O2)n1`, the “% Inhibition” value is reported as -6% and the Z score is reported as 1.24.
For `Cc1cc(NS(=O)(=O)c2ccc3c(c2)CC(Cl)(Cl)C3=O)nn1C`, the “% Inhibition” value was 13% and the Z score was -1.52.
For `CC(=O)c1ccc(N2CCC3(CCC(=O)N(CCc4c[nH]cn4)C3)CC2)nc1`, the “% Inhibition” value was -7% and the Z score was 0.86.
In the case of `CCOc1ccc(-c2c[nH]c(-c3cccc(OC)c3OC)n2)cc1`, the “% Inhibition” value is reported as 0% and the Z score is reported as 0.03.
`C[C@H]1C(=O)Nc2ccccc2CN1CC1(CS(C)(=O)=O)CC1` was tested, and the “% Inhibition” value was -7% and the Z score was 1.16.
For `COc1cc(C(=O)N[C@H](CO)CC(C)C)ccc1Cl`, the “% Inhibition” value was -2% and the Z score was 0.29.
`Cc1ccc(S(=O)(=O)NCc2ccc(C(=O)NC3CCCCC3)cc2)cc1` was tested, and the “% Inhibition” value was -6% and the Z score was 1.03.
In the case of `O=S(=O)(CCn1nnc2ccccc21)NCC1CCCC1`, the “% Inhibition” value is reported as -13% and the Z score is reported as 1.18.
For `CN(C(=O)Cn1c2cc(Cl)ccc2c(=O)n1C(C)(C)C)c1ccccc1`, the “% Inhibition” value was 11% and the Z score was -1.71.
`O=C(c1ccon1)N1CCn2c(Cc3cccc(F)c3)nnc2C1` was tested, and the “% Inhibition” value was -18% and the Z score was 1.83.
In the case of `CCN(Cc1nc2ccccc2c(=O)[nH]1)C(=O)c1ccoc1`, the “% Inhibition” value is reported as -8% and the Z score is reported as 1.06.
In the case of `COCCN1C(=O)CC(CC(=O)N2CCCCC2c2nccn2C)(c2ccccc2C)C1=O` (configuration not stated), the “% Inhibition” value is reported as -13% and the Z score is reported as 1.82.
With `Cc1sc(-c2cc(C(F)(F)F)on2)cc1S(=O)(=O)N1CCc2ccccc21` the “% Inhibition” value was -4% and the Z score was 0.71.
In the case of `Cc1ccc(C)c(Cn2c(COc3ccc4ccccc4c3)nc3ccccc32)c1`, the “% Inhibition” value is reported as -4% and the Z score is reported as 0.43.
`Cc1ncc2c(c1-c1noc(CCN3Cc4ccccc4C3)n1)CCNC2` was tested, and the “% Inhibition” value was -3% and the Z score was 0.42.
`CC(NC(=O)c1csc(-c2ccco2)n1)C1CCCO1` (configuration not stated) was tested, and the “% Inhibition” value was -8% and the Z score was 1.41.
In the case of `CC(C)C(C)NC(=O)CNC(=O)C1CC1C` (configuration not stated), the “% Inhibition” value is reported as -4% and the Z score is reported as 0.8.
For `O=C(C1CCN(c2ccc(N3CCCC3)nn2)CC1)N1CCN(c2cccc(C(F)(F)F)c2)CC1`, the “% Inhibition” value was -20% and the Z score was 3.52.
For `Cc1onc(N)c1S(=O)(=O)N(c1ccccc1)C(C)C`, the “% Inhibition” value was -2% and the Z score was 0.27.
In the case of `CCC(Oc1cccc(C)c1)C(=O)NC1CCC(=O)N(C)C1` (configuration not stated), the “% Inhibition” value is reported as -8% and the Z score is reported as 0.82.
For `Cc1cc(S(=O)(=O)NC[C@H](C)O)c(C(C)C)cc1Br`, the “% Inhibition” value was -9% and the Z score was 0.83.
With `O=C1CCN(c2ncc(-c3cccc4[nH]c(=O)[nH]c34)cn2)CC1` the “% Inhibition” value was -8% and the Z score was 1.69.
For `Cc1nonc1CC(=O)N(C)C[C@H]1COc2ccccc2O1`, the “% Inhibition” value was -16% and the Z score was 2.08.
With `Cc1cc(C(=O)N2CC(n3cc(C4CC4)nn3)C2)no1` the “% Inhibition” value was -16% and the Z score was 1.89.
With `Cc1ccc(CN2CCC[C@H](CNC(=O)c3ccncn3)C2)cc1C` the “% Inhibition” value was -11% and the Z score was 2.13.
For `COc1ccc(Cl)cc1N1CCN(Cc2nc(C(=O)NCc3cccc(C(F)(F)F)c3)co2)CC1`, the “% Inhibition” value was -18% and the Z score was 1.8.
For `Cc1cc(NC(=O)N2CC(C)(C)[C@@H]3COC[C@@H]32)ccc1-c1ccncc1`, the “% Inhibition” value was -13% and the Z score was 2.18.
With `CC1(C)NC(=O)N(CC(=O)Nc2ccc3c(c2)OCCCO3)C1=O` the “% Inhibition” value was -7% and the Z score was 1.37.
`COc1ccc(N2CCN(C(=O)c3nccnc3NC(=O)c3ccccc3)CC2)cc1` was tested, and the “% Inhibition” value was -13% and the Z score was 1.97.
`Cc1ccc(O)c(CN(CCN(C)C)Cc2ccsc2)n1` was tested, and the “% Inhibition” value was -8% and the Z score was 1.15.
For `COc1ccccc1CCN(C)c1cc(N2CCOCC2)ncn1`, the “% Inhibition” value was -3% and the Z score was 0.31.
In the case of `O=C(Cc1ccc(F)cc1)NC[C@H]1CCN(C(=O)c2ccccn2)C[C@@H]1O`, the “% Inhibition” value is reported as -9% and the Z score is reported as 1.58.
In the case of `CC1CCCCC1N(C)C(=O)C1=NN(C)C(=O)CC1` (configuration not stated), the “% Inhibition” value is reported as 1% and the Z score is reported as -0.18.
In the case of `O=C(NCC1(CO)CCC1)Nc1cccc(-c2ccccc2)c1`, the “% Inhibition” value is reported as -2% and the Z score is reported as 0.24.
For `CCc1nnc(CN[C@@H](C)c2ccc(S(C)(=O)=O)c(F)c2)n1C`, the “% Inhibition” value was -5% and the Z score was 0.58.
For `CCCCn1nnnc1Cn1c(=O)c2c(C(F)(F)F)cc(C)nc2n1C`, the “% Inhibition” value was -4% and the Z score was 0.51.
For `Cc1cc(C(=O)Nc2nnc(C3CC3)s2)no1`, the “% Inhibition” value was 5% and the Z score was -0.48.
`CCOc1ncccc1C(=O)N1CCC[C@H](c2nc(CCOC)no2)C1` was tested, and the “% Inhibition” value was -3% and the Z score was 0.41.
With `Cc1cc(O)cc(=O)n1CCNC(=O)c1ccncc1` the “% Inhibition” value was -13% and the Z score was 1.62.
`C[C@H](NC(=O)OC(C)(C)C)c1nnc(S(=O)(=O)Cc2c(F)cccc2Cl)o1` was tested, and the “% Inhibition” value was 5% and the Z score was -0.93.
For `COC(=O)C1=C(C)N([C@@H](C)c2ccccc2)C(=O)C1`, the “% Inhibition” value was 13% and the Z score was -1.59.
For `CS(=O)(=O)N1CC(Oc2cccnc2)C1`, the “% Inhibition” value was -8% and the Z score was 1.52.
`Cc1cc(C)c(N2CC[C@H](NC(=O)c3cnns3)C2=O)c(C)c1` was tested, and the “% Inhibition” value was 5% and the Z score was -0.97.
With `O=C(C1CC=CCC1c1nc2ccccc2s1)N1CCN(c2ccccc2)CC1` (configuration not stated) the “% Inhibition” value was -1% and the Z score was 0.21.
In the case of `Cc1cc(CN(C)S(=O)(=O)c2cnc(-c3ccccc3)nc2)no1`, the “% Inhibition” value is reported as 7% and the Z score is reported as -0.9.
For `CC(C)(C)Cc1cc(NC(=O)Nc2nccs2)n[nH]1`, the “% Inhibition” value was -15% and the Z score was 2.38.
`C=CCOCC(=O)c1ccc(NC(C)=O)cc1` was tested, and the “% Inhibition” value was -14% and the Z score was 1.9.
For `Cc1nn(C)cc1-c1cnc(C(C)(C)C)o1`, the “% Inhibition” value was -4% and the Z score was 0.53.
`C[C@H](C(=O)O)C(=O)N(C)Cc1cc(Cl)ccc1F` was tested, and the “% Inhibition” value was -1% and the Z score was 0.06.
For `O=S(=O)(N1CCCCCC1)N1CCN(Cc2ccco2)CC1`, the “% Inhibition” value was -18% and the Z score was 1.94.
`Cc1cc(C)nc(NC(=O)NC[C@](C)(O)c2cccs2)c1` was tested, and the “% Inhibition” value was -5% and the Z score was 0.84.
With `Nc1ncc(-c2cc3ccccc3o2)cn1` the “% Inhibition” value was -9% and the Z score was 1.42.
`CCCCN1CCc2ccc(NC(=O)CS(=O)(=O)CCC)cc21` was tested, and the “% Inhibition” value was 31% and the Z score was -3.46.
In the case of `Cc1nc(C2CC2)nc(N2CCN(C(=O)NC(C)C)CC2)c1Cc1c(F)cccc1Cl`, the “% Inhibition” value is reported as 0% and the Z score is reported as -0.05.
`N#Cc1cccc(-c2ccc(=O)n3c2[C@@H]2C[C@@H](CN(S(=O)(=O)c4ccccc4C#N)C2)C3)c1` was tested, and the “% Inhibition” value was -1% and the Z score was 0.15.
In the case of `CC[C@H]1OCC[C@@H]1C(=O)N1CCn2c(CC3CC3)nnc2C1`, the “% Inhibition” value is reported as 3% and the Z score is reported as -0.34.
With `CC(=O)Nc1ccn2ncc(C(=O)N3CCCCC3)c2c1` the “% Inhibition” value was -6% and the Z score was 0.93.
With `C=C1CC(C)(c2noc(-c3cc(C)[nH]n3)n2)C1` the “% Inhibition” value was 1% and the Z score was -0.19.
With `Cc1ccc(NC(=O)Cn2ccc3c(=O)[nH]ccc32)cc1` the “% Inhibition” value was -32% and the Z score was 3.05.
In the case of `Cc1ccc2oc(CN3CCN(S(=O)(=O)c4cc(C)c(C)cc4C)CC3)nc2c1`, the “% Inhibition” value is reported as -20% and the Z score is reported as 1.73.
With `COC[C@H](C)n1cnc(-c2ccccc2)c1-c1cc2c(cc1OC)OCO2` the “% Inhibition” value was -10% and the Z score was 1.02.
In the case of `c1cc(NCCC2CC3CCC2C3)nc(C2CC2)n1` (configuration not stated), the “% Inhibition” value is reported as -9% and the Z score is reported as 1.04.
`N#C[C@@H]1CN(S(=O)(=O)CC2CCCCC2(F)F)C[C@H]1c1ccccc1` (some centres not stated) was tested, and the “% Inhibition” value was -5% and the Z score was 1.14.
`CCn1cc(-c2noc(CNC(=O)[C@H](C)n3cccn3)n2)cn1` was tested, and the “% Inhibition” value was -17% and the Z score was 2.19.
`NC(=O)C[C@H]1CCCCN1c1ccnc(Cc2ccccc2)n1` was tested, and the “% Inhibition” value was -8% and the Z score was 1.48.
For `CCC[C@H]1CN(c2cnccn2)CCN1`, the “% Inhibition” value was -7% and the Z score was 0.87.
With `CC(CN1CC[C@H](O)C1)c1cccc(Cl)c1` (some centres not stated) the “% Inhibition” value was -6% and the Z score was 0.53.
In the case of `CCC(CC)N1C[C@@H](C(=O)Nc2nccnc2C2CC2)CC1=O`, the “% Inhibition” value is reported as 3% and the Z score is reported as -0.29.
With `C=CCC1(C(=O)Nc2ccc3c(c2)CN(C)C(=O)N3)CCC1` the “% Inhibition” value was 0% and the Z score was 0.02.
For `O=C(Nc1nccn1Cc1ccc(Br)cc1)C1CC(O)CN1` (configuration not stated), the “% Inhibition” value was -5% and the Z score was 0.64.
For `CCCC1(NC(=O)[C@H]2C[C@@](CC)(C(=O)O)N(C)[C@H]2c2ccc(OC)cc2)CC1`, the “% Inhibition” value was -10% and the Z score was 1.31.
In the case of `CC1(C)C[C@@H]1C(=O)NCc1ccncc1`, the “% Inhibition” value is reported as -8% and the Z score is reported as 1.38.
`CC(C)Oc1ccc(N2C[C@@H](C(=O)N3CCCC3)CC2=O)cc1` was tested, and the “% Inhibition” value was -23% and the Z score was 2.13.
`Cc1cc(C)n(CCCC(=O)N2CCC[C@H]2c2cn(C)nc2C)n1` was tested, and the “% Inhibition” value was -10% and the Z score was 1.35.
For `N#Cc1c(F)cccc1CN1CCN(C(=O)Cn2cnnn2)CC1`, the “% Inhibition” value was 16% and the Z score was -2.08.
For `O=C(NCc1ccc(-c2ccco2)o1)c1ccccc1`, the “% Inhibition” value was 4% and the Z score was -0.6.
With `O=C(OCc1cncs1)c1cncc(F)c1` the “% Inhibition” value was -6% and the Z score was 0.94.
In the case of `Cc1ccc(-n2ncc(C(=O)Nc3cccc(C(F)(F)F)c3)c2C2CCN(C(=O)OC(C)(C)C)CC2)c(C)c1`, the “% Inhibition” value is reported as 8% and the Z score is reported as -0.78.
In the case of `Cc1nc(CN[C@H](c2c(F)cccc2F)C(F)(F)F)cs1`, the “% Inhibition” value is reported as 2% and the Z score is reported as -0.4.
With `C[C@](O)(CN1CCc2ccccc2C1)c1ccc(S(C)(=O)=O)cc1` the “% Inhibition” value was -5% and the Z score was 0.48.
For `CCC1CN2CCCCC2CN1C(=O)CNC(=O)c1ccccc1` (configuration not stated), the “% Inhibition” value was -3% and the Z score was 0.59.
In the case of `Cc1cccn2cc(CN(C)[C@H](c3ccccn3)C3CC3)nc12`, the “% Inhibition” value is reported as 34% and the Z score is reported as -5.4.
With `CC(C)(CC(=O)Nc1ccc(Cc2nnc3ccccn23)cc1)C(=O)O` the “% Inhibition” value was 0% and the Z score was -0.04.
`O=C(Cn1cc2ccccc2n1)N[C@H]1CCN(C2CCOCC2)C1=O` was tested, and the “% Inhibition” value was 0% and the Z score was 0.05.
With `O=C(NCC(=O)N1CCC(=C2CCC2)CC1)OCc1ccccc1` the “% Inhibition” value was -14% and the Z score was 2.17.
